Values of other authors, collected in PubChem BioAssay AID1259410 (Chemical Carcinogenesis Research Information System (CCRIS), 2018).
“Also recorded” adds a separate entry of the source. The source holds more than one record for some entries. This is not the full list of results. There may be further records. The values listed for one entry differ for a reason that is not stated; some may be repeats, others may stem from another dose, organism or construct than stated.

Tested on: rodent tumor promotion studies, tumor incidence
Test: CCRIS tumor promotion studies
Settings: Species: RAT
Text: The CCRIS database contains chemical records with carcinogenicity, mutagenicity, tumor promotion, and tumor inhibition test results. It was developed by the National Cancer Institute (NCI). Data are derived from studies cited in primary journals, current awareness tools, NCI reports, and other sources. Test results have been reviewed by experts in carcinogenesis and mutagenesis.
CCRIS provides historical information from the years 1985 - 2011. It is no longer updated.
This is an archive assay for CCRIS tumor promotion studies.

SMILES | outcome (Carcinogen: 7,12-DIMETHYLBENZ[A]ANTHRACENE [57-97-6], Doses [Carcinogen]: 50 MG/KG BW ONCE AT 7 WK AGE, Doses [Promoter]: 0, 5, 50, 500 PPM IN DIET FOR 34 WK TO OVARIECTOMIZED TUMOR BEARING RATS FOR 19 WK AFTER CARCINOGEN (STUDY DURATION: 53, 5, 50, 500 PPM IN DIET FOR 34 WK TO OVARIECTOMIZED TUMOR BEARING RATS FOR 19 WK AFTER CARCINOGEN (STUDY DURATION: 53, Route [Carcinogen]: INTRAGASTRIC, Route [Promoter]: DIET (ORAL), Strain/Sex: SPRAGUE-DAWLEY/FEMALE) | outcome (Carcinogen: 2-ACETYLAMINOFLUORENE, 53-96-3, Doses [Carcinogen]: 50 PPM IN DIET FOR 76 WK, Doses [Promoter]: 0, 100, 300, 1000, 3000, 6000 PPM IN DIET CONCURRENTLY WITH CARCINOGEN FOR STUDY DURATION (STUDY DURATION: 76 WK), 100, 300, 1000, 3000, Route [Carcinogen]: ORAL, Route [Promoter]: ORAL, Strain/Sex: F344/MALE) | outcome (Carcinogen: 3,2'-DIMETHYL-4-AMINOBIPHENYL, 13394-86-0, Doses [Carcinogen]: 50 MG/KG IN CORN OIL 1/WK FOR 10 WK, Doses [Promoter]: 0, 1% ADMINISTERED TO 55 WK OLD RATS IN DIET FOR 11 WK BEGINNING 1 WK PRIOR TO CARCINOGEN (STUDY DURATION: 55 WK), Route [Carcinogen]: SUBCUTANEOUS, Route [Promoter]: ORAL, Strain/Sex: F344/MALE)
CCNc1nc(Cl)nc(NC(C)C)n1 | mammary tumor, not significant; also recorded: mammary: tumor; incidence increased at 500 ppm p<0.05; volume of tumor increased | – | –
Cc1cc(C(C)(C)C)c(O)c(C(C)(C)C)c1 | – | bladder: carcinoma and bladder: papilloma | ear duct: adenoma/carcinoma and bladder: carcinoma, papilloma
